Data on 58 molecules can be found in publication PMC4336329 (PLoS ONE, 2015).

The structures appear in SMILES notation. The whole screen tested about 310,000 compounds, of which about 14,000 (4.5%) showed an effect of 50% or more. The effect is printed as a negative number. The list shows a part of the results.
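Further: peak tail current of the secondary pulse compared with the same well before compound.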

For this assay, the target named is human ether-à-go-go-related gene (hERG) potassium channel (human, UniProt Q12809). The assay can be described thus: primary screen, population patch clamp on CHO cells stably expressing hERG.
Chain of human ether-à-go-go-related gene (hERG) potassium channel (Q12809 whole entry, looked up): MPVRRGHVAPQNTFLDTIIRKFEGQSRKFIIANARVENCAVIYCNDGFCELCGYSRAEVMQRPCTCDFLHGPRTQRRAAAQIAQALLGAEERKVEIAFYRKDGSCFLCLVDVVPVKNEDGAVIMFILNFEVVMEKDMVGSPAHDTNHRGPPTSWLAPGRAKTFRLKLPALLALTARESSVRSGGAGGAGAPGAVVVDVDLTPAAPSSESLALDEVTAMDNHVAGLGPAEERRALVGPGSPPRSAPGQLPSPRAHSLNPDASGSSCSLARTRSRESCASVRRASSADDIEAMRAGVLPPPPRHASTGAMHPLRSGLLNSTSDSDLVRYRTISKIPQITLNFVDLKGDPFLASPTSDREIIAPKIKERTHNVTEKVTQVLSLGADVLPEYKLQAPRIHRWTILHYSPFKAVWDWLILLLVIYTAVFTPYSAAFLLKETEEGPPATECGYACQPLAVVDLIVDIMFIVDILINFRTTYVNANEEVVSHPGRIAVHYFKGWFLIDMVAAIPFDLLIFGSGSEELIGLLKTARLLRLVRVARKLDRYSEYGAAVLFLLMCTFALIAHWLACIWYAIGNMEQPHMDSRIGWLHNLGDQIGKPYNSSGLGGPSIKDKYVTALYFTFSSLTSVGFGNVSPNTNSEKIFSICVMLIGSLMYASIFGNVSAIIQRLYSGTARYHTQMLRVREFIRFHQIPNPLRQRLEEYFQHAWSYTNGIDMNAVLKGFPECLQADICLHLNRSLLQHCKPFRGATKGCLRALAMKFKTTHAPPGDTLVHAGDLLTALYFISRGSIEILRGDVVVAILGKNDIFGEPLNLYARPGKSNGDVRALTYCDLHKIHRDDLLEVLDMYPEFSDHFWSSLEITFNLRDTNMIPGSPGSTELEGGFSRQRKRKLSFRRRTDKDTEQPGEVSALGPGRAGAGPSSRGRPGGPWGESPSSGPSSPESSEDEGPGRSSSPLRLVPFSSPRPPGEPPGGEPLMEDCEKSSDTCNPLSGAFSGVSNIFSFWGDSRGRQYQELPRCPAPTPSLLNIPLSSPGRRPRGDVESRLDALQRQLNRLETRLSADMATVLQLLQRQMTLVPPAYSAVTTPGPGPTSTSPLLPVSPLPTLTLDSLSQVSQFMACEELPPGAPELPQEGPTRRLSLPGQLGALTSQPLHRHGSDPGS
In the case of `CS(=O)(=O)N(CC(=O)Nc1ccc2c(c1)OCCO2)c1ccc2c(c1)OCO2`, the “hERG current change (%, negative = inhibition) at 10uM” value is -0.586%.
Next, `COc1ccc(S[C@@H](CCN2CC[C@H](C)CCC2=O)c2ccccc2)cc1`: -5.65%; `CC(NS(=O)(=O)c1ccc(Br)cc1)C(=O)NCc1ccc2c(c1)OCO2` (stereo not shown): -10.6%; `COc1ccc(CCNS(=O)(=O)c2ccc(N3CCCC3=O)cc2)cc1`: 5.2%.
For `Cc1ccc(CNC(C)(C)CO)cc1`, the “hERG current change (%, negative = inhibition) at 10uM” value stood at 1.98%.
The value for `CC(C)N(Cc1nccn1C)C(=O)CC1C(=O)NCCN1Cc1ccc(F)cc1` (stereo not shown) was 15.7%.
Next, `Cc1cccc(NC(=O)CCC2CCN(C(=O)c3ccc(C)s3)CC2)c1`: -65.5%; `Cn1c(Cn2c(=O)sc3ccccc32)nnc1SCC(=O)N1CCCc2ccccc21`: -20.5%.
Next, `O=C(COC(=O)C1CC2C=CC1C2)Nc1cccc(S(=O)(=O)N2CCOCC2)c1` (stereo not shown): -40.3%.
Regarding `NC(=S)N/N=C/c1ncc(C(F)(F)F)cc1Cl`, the “hERG current change (%, negative = inhibition) at 10uM” value stood at 20.4%.
Next, `Cc1ccc(Nc2cc(-c3ccccc3)nc3ncnn23)cc1`: 2.62%; `Cl.Clc1ccc(CNC2CCCC2)c(Cl)c1`: -16.5%; `O=C(/C=C/c1cccc(Cl)c1)NCCN1CCOCC1`: -14.7%.
Next, `CCCC1=Nc2cc(C(=O)N3CCCC3)ccc2Sc2ccc(C)cc21`: -19.9%.
Next, `CC(CNC(=O)c1ccc(C(C)(C)C)cc1)CN(C)C.Cl` (stereo not shown): -8.15%; `Cc1c(NC(=O)c2n[nH]c(=O)c3ccccc23)c(=O)n(-c2ccccc2)n1C`: 32.7%; `OCC1(CCOc2ccccc2)CCN(Cc2nc3ccc(F)cc3[nH]2)CC1`: -55%.
As for `COc1ccc2nc(N/C(=N/S(=O)(=O)c3cccs3)c3ccccc3Cl)sc2c1`, the “hERG current change (%, negative = inhibition) at 10uM” value stood at 10.7%.
The value for `Cc1ccc(NC(=O)c2cccc(S(C)(=O)=O)c2)cc1` was 8.82%; that for `COC(=O)c1ccccc1NC(=O)/C=C/c1ccco1` was 5.68%.
For `Oc1ccc2ccccc2c1CN1CCN(C/C=C/c2ccccc2)CC1`, the “hERG current change (%, negative = inhibition) at 10uM” value stood at 14%.
Turning to `CC(=O)Nc1nc2ccc(NC(=O)c3ccco3)cc2s1`, the “hERG current change (%, negative = inhibition) at 10uM” value is on record as 6.98%.
Next, `Cc1cc(CNC(=O)c2cc(-c3ccccc3)nc3ccccc23)nn1C`: -1.51%.
The value for `O=C(c1ncc[nH]1)c1ccccc1Cl` was -24.7%; that for `CCOc1ccc(NC(=O)CC2C(=O)N(c3cccc(OC)c3)C(=O)N2CCOC)cc1` (stereo not shown) was -5.19%; that for `CCN(CC(N)=O)S(=O)(=O)c1ccc(F)cc1` was 0.358%.
In the case of `S=c1[nH]c(-c2ccccc2)cn1/N=C/c1ccncc1`, the “hERG current change (%, negative = inhibition) at 10uM” value is given as 4.65%.
`O=C(NCc1ccccn1)Nc1ccc(Cl)cc1Cl`: the “hERG current change (%, negative = inhibition) at 10uM” value was found to be 18.1%.
Next, `Fc1ccc(-c2[nH]ncc2CN(CC2CCC2)CC2CCCO2)c(F)c1` (stereo not shown): 7.7%; `CSc1ccccc1NC(=O)CN(C)C(C)C(=O)Nc1ccc(C#N)cc1` (stereo not shown): -63.1%; `CN(CCCNC(=O)c1ccccc1F)CCCNC(=O)c1ccccc1F`: -10.1%.
Next, `CCCCN(C(=O)c1ccc(Cl)cc1)C1CC2CCC(C1)N2C.Cl` (stereo not shown): -47.4%; `CN(C)CCCN(C(=O)c1cc(Cl)sc1Cl)c1nc2cc3c(cc2s1)OCO3.Cl`: -41.9%.
The value for `Cc1cc(Br)ccc1N1C(=O)CC(=O)NC1=O` was 5%.
On to `Cc1cc(C)nc(SCc2ccccc2C#N)n1`, for which the “hERG current change (%, negative = inhibition) at 10uM” value was -4.37%.
Next, `CCNS(=O)(=O)c1ccc(C)c(-n2cnnn2)c1C`: -6.17%; `CCC(=O)Nc1ccc(C(=O)CSc2nnc(-c3ccc(NS(C)(=O)=O)cc3)n2C)cc1OC`: 10.3%.
Next, `CC(C)C(=O)N1CCN(c2ccccc2N)CC1`: -0.151%; `Cc1ccccc1OC1=NS(=O)(=O)c2ccccc21`: 20.6%; `COc1cc(C(=O)Nc2ccc(S(=O)(=O)NC(C)(C)C)cc2)cc(OC)c1OC`: 1.39%.
Next, `CC(=O)N1N=C(c2ccccc2)OC1c1ccc([N+](=O)[O-])s1` (stereo not shown): -1.33%.
Regarding `COc1ccc(S(=O)(=O)Nc2cc([N+](=O)[O-])ccc2OC)cc1`, the “hERG current change (%, negative = inhibition) at 10uM” value was -20%.
The value for `Cc1nnc(NC(=O)CSc2nnc(CNC(=O)C34CC5CC(CC(C5)C3)C4)n2C2CCCCC2)s1` was 2.98%.
For `CCOc1cccc(CN2CCN(c3cccc(C(F)(F)F)c3)CC2)c1O`, the “hERG current change (%, negative = inhibition) at 10uM” value is -46.6%.
The value for `CN(Cc1ccncc1)C1CC(=O)N(c2ccc(F)cc2)C1=O` (stereo not shown) was 7.73%.
Next, `COc1ccccc1N1C(=O)NC(=O)/C(=C/c2ccc3c(c2)Cc2ccccc2-3)C1=O`: -13%.
Next, `O=C(NC1CC1)c1ccc2c(c1)ncn2C1CCCC1`: 1.19%; `COc1ccc(C(N)CCc2ccc(C)o2)cc1.Cl` (stereo not shown): -11%; `O=C(Cc1cccs1)Nc1cccc(-c2nc3ccccc3[nH]2)c1`: -28.7%.
Turning to `CS(=O)(=O)N(CC(=O)N1CCCC1)c1cc(Cl)c(Cl)cc1Cl`, the “hERG current change (%, negative = inhibition) at 10uM” value is reported as -4.34%.
Next, `Cc1ccc(-n2c(O)c(/C=N/N3CCOCC3)c(=O)[nH]c2=S)cc1`: 3.26%; `COc1ccc(Cc2nnc(NC(=O)C3CC(=O)N(CCc4ccc(F)cc4)C3)s2)cc1OC` (stereo not shown): 20.1%.
As for `Cc1ccccc1Cn1ccc(NC(=O)c2cnn3c2NC(c2ccccc2)CC3C(F)(F)F)n1` (stereo not shown), the “hERG current change (%, negative = inhibition) at 10uM” value is -14.6%.
Next, `Cc1ccc(NC(=O)c2ccc(OC(=O)c3cc4ccccc4o3)cc2)cc1`: 8.66%; `O=S(=O)(c1ccc(-c2ccccc2)cc1)N1CCCCC1`: 14.1%; `Cc1cc(N2CCN(c3nc4ccccc4s3)CC2)n2ncnc2n1`: -77.6%.
On to `CCCc1cc(=O)[nH]c(SCC(=O)Nc2ccc(OC(F)F)cc2)n1`, for which the “hERG current change (%, negative = inhibition) at 10uM” value amounted to 2.67%.
Regarding `COc1ccc(S(=O)(=O)N2CCC(C(=O)Nc3ccc(F)cc3)CC2)c2cccnc12`, the “hERG current change (%, negative = inhibition) at 10uM” value is -12.5%.
